# Data as given in PMC9911399, “Two distinct binding modes provide the RNA-binding protein RbFox with extraordinary sequence specificity”.
# Changes are numbered by the printed parent chain; changes in the protein carry UniProt numbers. The list shows a part of the results.
# T1: RBFOX1 RRM RbFoxmut (Fox-RRM*) (Homo sapiens, UniProt Q9NWB1 109-208, R118D;E147R;N151S;E152T)
# T1 sequence: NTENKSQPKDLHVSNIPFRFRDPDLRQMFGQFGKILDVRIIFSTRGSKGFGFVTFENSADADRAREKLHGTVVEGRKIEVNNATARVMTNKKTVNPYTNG
# B1: UUCGUGC (DNA:RNA)
# RNA: GGGAGACCGGAAUUCAGAUUGUCCUUCGUGCUUAAAUCCCGUCGUAGCCACCA
# DNA 1: CAATCTGAATTCCGGTCTCCC
# DNA 2: TGGTGGCTACGACGGGATT
# B2: CACGAGU (DNA:RNA)
# RNA: B1 RNA with U25C, U26A, U29A, C31U
# DNA 1: CAATCTGAATTCCGGTCTCCC
# DNA 2: TGGTGGCTACGACGGGATT
# B3: GGAGUAC (DNA:RNA)
# RNA: B1 RNA with U25G, U26G, C27A, G30A
# DNA 1: CAATCTGAATTCCGGTCTCCC
# DNA 2: TGGTGGCTACGACGGGATT
# B4: CUUGAAA (DNA:RNA)
# RNA: B1 RNA with U25C, C27U, U29A, G30A, C31A
# DNA 1: CAATCTGAATTCCGGTCTCCC
# DNA 2: TGGTGGCTACGACGGGATT
# B5: CCUACCG (DNA:RNA)
# RNA: GGGAGACCGGAAUUCAGAUUGUCCCCUACCGUUAAAUCCCGUCGUAGCCACCA
# DNA 1: CAATCTGAATTCCGGTCTCCC
# DNA 2: TGGTGGCTACGACGGGATT
# B6: AUUAUGC (DNA:RNA)
# RNA: B1 RNA with U25A, C27U, G28A
# DNA 1: CAATCTGAATTCCGGTCTCCC
# DNA 2: TGGTGGCTACGACGGGATT
# B7: GGCCCCU (DNA:RNA)
# RNA: B5 RNA with C25G, C26G, U27C, A28C, G31U
# DNA 1: CAATCTGAATTCCGGTCTCCC
# DNA 2: TGGTGGCTACGACGGGATT
# B8: UGCUAAA (DNA:RNA)
# RNA: B1 RNA with U26G, G28U, U29A, G30A, C31A
# DNA 1: CAATCTGAATTCCGGTCTCCC
# DNA 2: TGGTGGCTACGACGGGATT
# B9: ACCUCAG (DNA:RNA)
# RNA: B5 RNA with C25A, U27C, A28U, C30A
# DNA 1: CAATCTGAATTCCGGTCTCCC
# DNA 2: TGGTGGCTACGACGGGATT
# Target: T1, RBFOX1 RRM RbFoxmut (Fox-RRM*)
# Assay: EMSA; HiTS-Eq, 1 nM pool, 10 min; buffer printed only for the single-RNA assays: 10 mM Tris pH 7.5, 150 mM NaCl, 3.4 mM EDTA, 0.001% NP-40, 30 C
# Conditions: tags: His6 N-terminal (pET28a); label: 5' 32P
# Procedure, shortened: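 These values rest on relative association constants, computed from read-count changes of each RNA species versus the control reaction and normalised to the cognate motif. Reads came from free RNA recovered by 8% native PAGE after purified RbFox RRM (wild type or mutant) at increasing concentrations was equilibrated for 10 min in 50 µL with 1 nM of a 5′-radiolabelled pool with 7 randomized nucleotides and DNA-annealed flanks.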
row,Binder,binding signal
1,B1,0.134 KA relative to UGCAUGU
2,B2,0.15 KA relative to UGCAUGU
3,B3,0.0876 KA relative to UGCAUGU
4,B4,0.0838 KA relative to UGCAUGU
5,B5,0.0983 KA relative to UGCAUGU
6,B6,0.129 KA relative to UGCAUGU
7,B7,0.0476 KA relative to UGCAUGU
8,B8,0.0931 KA relative to UGCAUGU
9,B9,0.137 KA relative to UGCAUGU
